Laboratory results: the supplement of paper PMC11417369
Some of the results follow.

System: PfHDP1 homeodomain (GST-tagged)
Experiment: gcPBM binding intensity (ln(normalized median fluorescence intensity)); higher = stronger DNA binding
Method in brief: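 Binding intensity is defined as the maximum Masliner-normalised natural-log median intensity across replicate spots for either probe orientation. It was measured on an Agilent 4 × 180k array of primer-extended double-stranded 36-bp intergenic genomic probes and negative controls, to which GST-tagged P. falciparum DNA-binding domains made in E. coli were applied for 1 h in 1× PBS with 1% milk, 0.2 mg/ml BSA, 0.5% salmon testes DNA and 0.03% Triton X-100. Detection was by Alexa488 anti-GST antibody and scanning at 488 nm.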

In order of rising “gcPBM binding intensity (ln)” value:
1. TTAAAACATATTTTGAATTAATATATTTTAATATTA [XGTACX_negctrl_site148]  5.65
2. ATATTTTTTAGTAAGACGAAATAAATAAATCTTTAT [CACACA_negctrl_site1778]  5.89
3. AATAGGAAGACTATTTTGTATTTGATTTTTTATTCC [GTGCAC_negctrl_site453]  5.91
4. AAAAATTTATTTTTAGGTACACAATTGAATTATTTA [XGTACX_site7008]  6.01
5. TAATAAACAAATTCCAAAATAAATTAAAAGGAAAAT [CACACA_negctrl_site1404]  6.03
6. AAAAAAAAAAAGAACTCACACATAATAATGTATATG [CACACA_site4974]  6.07
7. TTTATTAGAACCGTACGTACATAGTTATTTTTTCAA [XGTACX_site8848]  6.1
8. TCTTTTTTTTTTTTTTTTTTTTTTTATTTATTCATA [CACACA_negctrl_site1827]  6.14
9. TTGTCCCTATAAGGGGAACACACATAAATGAATATA [CACACA_site8250]  6.15
10. TTAGATATGTGTAAGGGTACAAAATACTTTACATTT [XGTACX_site8204]  6.17
11. TTTTTATTGTTAATTTTAATTTTTTTTTTTTAATGC [CACACA_negctrl_site162]  6.2
12. AAAGGAGACAGAATAAGAATAAATATTATACATATA [XGTACX_negctrl_site412]  6.21
13. ATAATAAAAAAAAAATGTACATAAATCTAAAATCCT [XGTACX_site5823]  6.22
14. TTTAAAACCCTAAAAAAAAAAAAAAAAAAAAAAAAA [CACACA_negctrl_site1212]  6.26
15. ATATAAGTTTATATATGTACATATATATATTATATA [XGTACX_site2068]  6.26
16. CTTATATAATTCGATAGTACATATTTTTATATATAT [XGTACX_site4045]  6.26
17. TACATATTTTTTATATGTACATATTTTTTATGTGTA [XGTACX_site442]  6.36
18. ATGCATAAAAGAAATACACACATAAATATGTAAATA [CACACA_site7087]  6.36
19. ACGTAAGCGAATAAAAGTACATATATTAAAAAAAAA [XGTACX_site4458]  6.36
20. TTAAAATTATATCTGTGTACATAAATTGTGTAACTA [XGTACX_site1966]  6.37
21. ACAAAAATATATATATGTACATATATCATCATAATA [XGTACX_site5850]  6.37
22. TATTCCAAATTTACTAGTACATAATCCATCCGATAA [XGTACX_site1558]  6.38
23. AATAGAATGTAATATACACACATATATTTCTCTTTT [CACACA_site2630]  6.38
24. TGTAGTCTGGAGAAAAGTACATAGTATCTGATAACC [XGTACX_site2018]  6.4
25. TTTTCGATGTTGGTAGGAAGTTTGGTACACGTAGTA [TGCATGCA_negctrl_site145]  6.4
26. TATTAGTCGAATGATGTACACACATACAAAACATTT [CACACA_site9331]  6.42
27. AAAACTATTTGTAAAAGTACATAATAAATAAATAAA [XGTACX_site7922]  6.45
28. CGTATTTATAGAATTACACACCATATTGTAATTATT [CACACA_site7722]  6.47
29. TTTCTATATTGGCATACATGCAAGAACGAAAAGATT [TGCATGCA_site117]  6.47
30. AATATATGAATTAGAAGTACAAATAAATATTTATTT [XGTACX_site2062]  6.48
31. CTTCAATATATTCTTACACACTTAAAAAAAAAAATA [CACACA_site4287]  6.48
32. TAGCGTACATTTCATTGTAATCATAAAAAATAAAGA [CACACA_negctrl_site447]  6.49
33. GTTTGTATAGGTTCATGTACAAAAAAAAAAAAAAAA [XGTACX_site537]  6.52
34. TTTTATCTCATTCATCAAAATCACCGGAATCATATA [CACACA_negctrl_site357]  6.54
35. ATATACACATAAAGTAGTACACCTGAAATTTTTTTT [XGTACX_site2951]  6.54
36. TTTCCTTATAAAAATACACACAAACTTTAATTAAAA [CACACA_site7710]  6.54
37. TATGCTATAATACTCTGTACTTACTAATTTAATAAT [XGTACX_site5926]  6.55
38. TTAATCATAAAAGTCACACATAATAAGAAAAAGCTT [CACACA_site4616]  6.57
39. TTCTTAAGGAACGAACGTACAGAATAAAAAGTAAAA [XGTACX_site4294]  6.61
40. AATATAATGTAATATACACACATATATTTCTCTTTT [CACACA_site5451]  6.66
41. ATAATGTTTTATAATACACACATTATGTATATAAAT [CACACA_site4077]  6.66
42. CAAAAAATTCAACACACACACACACCGATAAATAAA [CACACA_site8330]  6.66
43. ATTTAAATAAGATATACACACAAGTAGAAGACTATG [CACACA_site806]  6.66
44. TTATATTAATATATATGTACATATATTTTTTTTATA [XGTACX_site6981]  6.66
45. CCACATTTTACAGACACACACAATTTATATTACGGT [CACACA_site1894]  6.67
46. TTTTTTTTGTAATACGCATGCTAAAAATATTTATAA [TGCATGCA_site656]  6.69
47. TTTCTTTTTAAATGCTGTACAAAGGGTGACGTTAAA [XGTACX_site4724]  6.7
48. AAAAGGTATCCACATACGCACACCAAAAAAAAAAAT [CACACA_site347]  6.74
49. AATTCATTTAAAAGTTGTACAAGCTTAATAAAAAAA [XGTACX_site6073]  6.75
50. TAAGTATACGCATACACACACACACCCAAAAAAAAA [CACACA_site425]  6.76
51. TTGTGAAACATCAAGAAAAAGAAATAATAAAAAGAA [GTGCAC_negctrl_site38]  6.78
52. AATTAAAAATATAAATGTACATATATGTAAAACTTT [XGTACX_site123]  6.8
53. ATATATTTAAATAAAAGTACGTAAAGGTATATTTAA [XGTACX_site8088]  6.8
54. GAGGATATATTATATGTACACACATATATAACGGAT [CACACA_site8361]  6.83
55. ATTCATATGTGACACACACACACACGCATAAAAAAA [CACACA_site7515]  6.87
56. ATACAACAATGTGAATTATATATGGATGGAGAATGA [GTGCAC_negctrl_site148]  6.89
57. ATAAAATAAATGAAAAATGTAAAATGAGAAAAAAAT [CACACA_negctrl_site1026]  6.96
58. GTATTTTTTTTAATATGTACATATAAAATATTTTAT [XGTACX_site8329]  6.98
59. ATTTTTTATATTTAGTGTACATGTTTTAATTTATAA [XGTACX_site7512]  6.98
60. CATTCAATTGAAAAATGTACAAAAATAAACATATGC [XGTACX_site1663]  7
61. AATACAATTTATAACACACACACAATAATACATATA [CACACA_site1252]  7.02
62. TATATTATATTATACATACACACCCATATAATATGT [CACACA_site869]  7.03
63. GTAATGTCGTCGTTTTGTACATATTTTTATAAAAAG [XGTACX_site2688]  7.06
64. CCTCCCATTTTTACACGTACACATTTAAAATAGACT [XGTACX_site5640]  7.1
65. GTGCATATATGATATACACACAATATAATAGTATGT [CACACA_site2460]  7.18
66. TATTACACATATTATACACACATATATTATAGATAT [CACACA_site6839]  7.33
67. ATAACTTGTATATATACACACACACCCTTTCTTTTT [CACACA_site8600]  7.38
68. ATTTTATCATAATAAAGTACAAAGATGCAAATAATA [XGTACX_site2270]  7.55
69. GTGTTTTTATTATTTTGTACACATATATTTAATATT [XGTACX_site2109]  7.65
70. ATAATATATGAGCAATGTACATATTTCTCATTGCAC [XGTACX_site2253]  7.78
71. TAAACATACCTATACACACACACACGCACACGCACA [CACACA_site6372]  7.88
72. ATAACTTTATTCAGTTTGCACTTTTATAACAAAAGA  8.26
73. TGAAGAAAATATTAATGTACATATTATATATATATA [XGTACX_site5497]  8.64
74. TATATATATATAAGCACACAAACAAAAAAAATTATA [CACACA_site3897]  8.74
75. GTTCCAGGCATTCGTGCGCACAAATAGAAACAATTA [GTGCAC_site9824]  8.81
76. TTATATTATTCGTGTGTGCACGATATTTCATAATTG [GTGCAC_site9767]  8.92
77. GTTGAACATATATGCACACACATAAAATAAAAAAAA [CACACA_site2413]  9
78. AAAATTCATATATACACACACGCACATATATATATA [CACACA_site90]  9.04
79. TATATATATATATATTGTACACATTGTGTTTAAATA [XGTACX_site5104]  9.14
80. TTGTAACCTATGCACGCACACAAGAAAAAAACAAAA [CACACA_site3775]  9.33
81. TATATATATATATGGGTGCATTTTTTTGTCCATGTA [GTGCAC_site9868]  9.37
82. ATTGAATATGTAAATGCACACCAAAAAAAAAAAAAA [CACACA_site9189]  9.61
83. AAGAGTTTGAAGTTTGCACACTACGTTAAAAATAAA [CACACA_site3939]  10.2
84. TTTTTCCTATTTTTAGTGCACATATAAATAAATAAA [GTGCAC_site9821]  10.2
85. TAAAAATTGCACAGAAGTACAGTATAAATATATATA [XGTACX_site3421]  10.2
86. AGGTATATATTACAAGTGCACTGTAAAATTAAAATT  10.5
87. CCCATGCATTTTTGCACACACATATATATATAAATA [CACACA_site1430]  10.8
88. GAATGTCTAATTTTGATGCACACTTTTGTGCAATTA [CACACA_site2902]  11.1
